These results are taken from the supplement of paper PMC9334596.

Each structure is given as a SMILES string. Where “and” joins values, the source holds several entries; their conditions need not be identical. Equal values may be shown once. In all, about 5,300 compounds were measured (“PER2::LUC luminescence relative to vehicle control”: median about 0.96, highest 2% from about 1.3 on). Some of the results follow.

The test system of the assay is mPer2Luc MEF. Briefly: PER2::LUC luminescence relative to vehicle control (fold of vehicle); higher = higher PER2::LUC reporter signal. To be noted: 10 µM. Put shortly: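 The reported values are PER2::LUC luminescence as fold of vehicle control in mouse embryonic fibroblasts carrying the mPer2Luc reporter. Cells were seeded at ~3000 per well in 384-well plates in DMEM with 10% FBS at 37 °C and 5% CO2, and compounds were added at 10 μM 48 h later. ONE-Glo luminescence was read 24 h and 30 h after treatment.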

`Cc1c(C(=O)N2CCOc3ccc(-c4ccc(N)nc4)cc3C2)ccc(S(C)(=O)=O)c1F`: the “PER2::LUC luminescence” value by setting is: (time after treatment 24 h) 0.365; (time after treatment 30 h) 0.4.

Take `C=C[C@@]1(C)CC(=O)[C@@]2(O)[C@](C)(O1)[C@@H](O)[C@@H](O)C1C(C)(C)CC[C@H](O)[C@@]12C` (some centres undefined): the “PER2::LUC luminescence” value reads like this: (time after treatment 24 h) 0.964; (time after treatment 30 h) 0.709.

Turning to `C[C@H](Nc1ncnc2nc[nH]c12)c1cc2cccc(Cl)c2c(=O)n1-c1ccccc1`, the “PER2::LUC luminescence” value is 0.643 (time after treatment 24 h) and 0.535 (time after treatment 30 h).

Take `O=C1CSc2ccccc2N1Cc1cccc(C(F)(F)F)c1`: the “PER2::LUC luminescence” value turned out to be 0.887 (time after treatment 24 h) and 0.88 (time after treatment 30 h).

For `CC(=O)Nc1ccc(OC(C)=O)cc1`, the “PER2::LUC luminescence” value (time after treatment 24 h) is 0.973 and 0.928; the “PER2::LUC luminescence” value (time after treatment 30 h) is 1.08 and 0.975.

For `NC1CCN(c2c(F)cc3c(=O)c(C(=O)O)cn(C4CC4)c3c2Cl)C1` (centres undefined), the “PER2::LUC luminescence” value runs as follows: (time after treatment 24 h) 0.93 and 0.841; (time after treatment 30 h) 0.919 and 0.915.

Consider `NC[C@@H]1O[C@H](O[C@H]2[C@@H](O)[C@H](O[C@@H]3[C@@H](O)[C@H](N)C[C@H](N)[C@H]3O[C@H]3O[C@H](CN)[C@@H](O)[C@H](O)[C@H]3N)O[C@@H]2CO)[C@H](N)[C@@H](O)[C@@H]1O`, for which the “PER2::LUC luminescence” value is 1.01 and 1.06 (time after treatment 24 h); 0.842 and 1.08 (time after treatment 30 h).

Consider `CCC1(C)CC(=O)NC1=O` (centres undefined), for which the “PER2::LUC luminescence” value (time after treatment 24 h) is 0.883 and the “PER2::LUC luminescence” value (time after treatment 30 h) came out at 1.18.

As to `CC(C)(O)CC(=O)NCCn1ccc2ncnc(Nc3ccc(Oc4cccc(C(F)(F)F)c4)c(Cl)c3)c21`, the “PER2::LUC luminescence” value reads like this: (time after treatment 24 h) 0.931; (time after treatment 30 h) 0.834.

On to `Cc1nc2c([nH]1)c(=O)n(C)c(=O)n2Cc1ccco1`, for which the “PER2::LUC luminescence” value (time after treatment 24 h) is 1.05 and the “PER2::LUC luminescence” value (time after treatment 30 h) was determined as 0.952.

Regarding `c1cc(OCCN2CCCCC2)cc(-c2n[nH]c3ccc(-c4nnc[nH]4)cc23)c1`, the “PER2::LUC luminescence” value is, setting by setting: (time after treatment 24 h) 0.76; (time after treatment 30 h) 1.

With `C[N+](C)(CCOc1ccccc1)Cc1ccccc1.O=C([O-])c1cc2ccccc2cc1O`, the “PER2::LUC luminescence” value is, setting by setting: (time after treatment 24 h) 1; (time after treatment 30 h) 0.993.

On to `CC(NCCc1ccc(O)cc1)C(O)c1ccc(O)cc1` (centres undefined), for which the “PER2::LUC luminescence” value is 1.1 (time after treatment 24 h) and 1.08 (time after treatment 30 h).

As for `COc1ccc(C(C)=O)c(OC)c1`, the “PER2::LUC luminescence” value reads like this: (time after treatment 24 h) 0.865; (time after treatment 30 h) 0.95.

As for `CC(=O)N[C@H]1[C@H]([C@H](O)[C@H](O)CO)O[C@@](Oc2c[nH]c3ccc(Br)c(Cl)c23)(C(=O)O)C[C@@H]1O`, the “PER2::LUC luminescence” value (time after treatment 24 h) came out at 1 and the “PER2::LUC luminescence” value (time after treatment 30 h) is 0.967.

With `CCc1nn(CCCN2CCN(c3cccc(Cl)c3)CC2)c(=O)n1CCOc1ccccc1`, the “PER2::LUC luminescence” value runs as follows: (time after treatment 24 h) 0.812 and 0.818; (time after treatment 30 h) 0.781 and 0.615.

On to `NC1CONC1=O` (racemic), for which the “PER2::LUC luminescence” value was 1.02 (time after treatment 24 h) and 0.833 (time after treatment 30 h).

For `CC(C)c1cnn2c(NCc3ccccc3)cc(NCCCCCCN)nc12`, the “PER2::LUC luminescence” value was 0.368 and 0.467 (time after treatment 24 h); 0.899 and 0.658 (time after treatment 30 h).

On to `CN(C)CCCc1cc(C(=O)Nc2ccc(-c3ccncc3)cc2)ccc1O`, for which the “PER2::LUC luminescence” value amounted to 0.539 (time after treatment 24 h) and 0.511 (time after treatment 30 h).

`CN1CCN(c2ccc3[nH]c(-c4ccc5[nH]c(-c6ccc(O)cc6)nc5c4)nc3c2)CC1`: the “PER2::LUC luminescence” value was found to be 0.495 (time after treatment 24 h) and 0.54 (time after treatment 30 h).

As to `O=C(c1ccc(F)c(F)c1Nc1ccc(I)cc1F)N1CC(O)([C@@H]2CCCCN2)C1`, the “PER2::LUC luminescence” value reads like this: (time after treatment 24 h) 0.07; (time after treatment 30 h) 0.035.

Regarding `O=S(=O)(c1cccc2cnccc12)N1CCCNCC1`, the “PER2::LUC luminescence” value was 0.819 and 0.725 (time after treatment 24 h); 0.846 and 0.795 (time after treatment 30 h).

Consider `COc1cc2nc(N3CCCN(C)CC3)nc(NC3CCN(Cc4ccccc4)CC3)c2cc1OC`, for which, where the note is “time after treatment 30 h”, the “PER2::LUC luminescence” value is 1.03 and 1.15 and 0.389.

`CCC(C)(C)C(=O)O[C@H]1C[C@@H](C)C=C2C=C[C@H](C)[C@H](CC[C@@H]3C[C@@H](O)CC(=O)O3)[C@H]21`: the “PER2::LUC luminescence” value came out at 0.454 (time after treatment 24 h) and 0.415 (time after treatment 30 h).

Take `CCNC1(C(N)=O)CCN(c2ncnc3c2nc(-c2ccccc2Cl)n3-c2ccc(Cl)cc2)CC1`: the “PER2::LUC luminescence” value was 0.716 (time after treatment 24 h) and 0.771 (time after treatment 30 h).

Consider `C[C@@H]1CN(c2c(F)c(F)c3c(=O)c(C(=O)O)cn(C4CC4)c3c2F)C[C@H](C)N1`, for which the “PER2::LUC luminescence” value (time after treatment 24 h) is 0.849 and the “PER2::LUC luminescence” value (time after treatment 30 h) was 0.813.

For the compound `CCCCS(=N)(=O)CCC(N)C(=O)O` (centres undefined), the “PER2::LUC luminescence” value was found to be 1.03 (time after treatment 24 h) and 0.971 (time after treatment 30 h).

In the case of `O=C(CSc1nc2c(c(=O)n1-c1ccccc1)SCC2)Nc1ccc(-c2ccccc2)cn1`, the “PER2::LUC luminescence” value was determined as 0.983 (time after treatment 24 h) and 0.925 (time after treatment 30 h).

For `COc1cccc(OC)c1OCCNCC1CSc2ccccc2O1` (centres undefined), the “PER2::LUC luminescence” value worked out at 0.914 (time after treatment 24 h) and 0.859 (time after treatment 30 h).

Consider `CCOC(=O)CC(=O)N1CCSC1COc1ccccc1OC` (centres undefined), for which the “PER2::LUC luminescence” value by setting is: (time after treatment 24 h) 0.948; (time after treatment 30 h) 1.09.

On to `CC(=O)Oc1ccc(C(c2ccc(OC(C)=O)cc2)c2ccccn2)cc1`, for which the “PER2::LUC luminescence” value is, setting by setting: (time after treatment 24 h) 0.897; (time after treatment 30 h) 0.948.

On to `CC1(C)CC2C1CC[C@]1(CBr)CCC3C(CC(=O)O)C(=O)O[C@@]32C1` (some centres undefined), for which the “PER2::LUC luminescence” value (time after treatment 24 h) was 1.04 and the “PER2::LUC luminescence” value (time after treatment 30 h) is 0.929.

With `COc1cc(CNC(=O)CCCCCCC(C)C)ccc1O`, the “PER2::LUC luminescence” value came to 1.03 (time after treatment 24 h) and 0.876 (time after treatment 30 h).

On to `O=[N+]([O-])c1ccc(O)c2ncccc12`, for which the “PER2::LUC luminescence” value (time after treatment 24 h) came out at 0.562 and the “PER2::LUC luminescence” value (time after treatment 30 h) was found to be 0.581.

Take `N#CC[C@H](C1CCCC1)n1cc(-c2ncnc3[nH]ccc23)cn1`: the “PER2::LUC luminescence” value is, setting by setting: (time after treatment 24 h) 0.99; (time after treatment 30 h) 1.13.

On to `O=C1CC[C@]23/C=C/C(=O)NCCCCNCCCNC(=O)/C=C/c4ccc(c2c4)O[C@@H]3C1`, for which the “PER2::LUC luminescence” value runs as follows: (time after treatment 24 h) 0.978; (time after treatment 30 h) 0.915.

Regarding `CN(C[C@@H]1COCCO1)S(=O)(=O)Nc1ccc2ccc3ncc(-c4cnn(C)c4)cc3c(=O)c2c1`, the “PER2::LUC luminescence” value reads like this: (time after treatment 24 h) 0.792; (time after treatment 30 h) 0.671.

For the compound `CC(O)(CC(=O)O)CC(=O)O`, the “PER2::LUC luminescence” value is 1.07 and 0.607 (time after treatment 24 h); 1.05 and 1.01 (time after treatment 30 h).

As for `CCCCOC(=O)c1cc2c(cn1)[nH]c1ccccc12`, the “PER2::LUC luminescence” value by setting is: (time after treatment 24 h) 1.05; (time after treatment 30 h) 0.959.

For the compound `COc1cc(NC(=O)Nc2cccc(CNC(=O)O[C@H]3CCOC3)c2)ccc1-c1cnco1`, the “PER2::LUC luminescence” value is, setting by setting: (time after treatment 24 h) 0.791; (time after treatment 30 h) 0.783.

As to `CC1CCC(C(C)C)C(O)C1` (racemic), the “PER2::LUC luminescence” value (time after treatment 24 h) was determined as 1.02 and the “PER2::LUC luminescence” value (time after treatment 30 h) is 1.25.

For `CCCc1nn(C)c2c(=O)[nH]c(-c3cc(S(=O)(=O)N4CCN(C)CC4)ccc3OCC)nc12`, the “PER2::LUC luminescence” value is, setting by setting: (time after treatment 24 h) 0.769 and 0.533; (time after treatment 30 h) 0.924 and 1.09.

Turning to `COc1cc(O)c(C(=O)/C=C/c2ccccc2)c(OC)c1`, the “PER2::LUC luminescence” value is, setting by setting: (time after treatment 24 h) 0.907; (time after treatment 30 h) 0.937.

Turning to `CC(=O)Nc1ccc(S(=O)(=O)c2ccc(NC(C)=O)cc2)cc1`, the “PER2::LUC luminescence” value came out at 1.1 (time after treatment 24 h) and 0.885 (time after treatment 30 h).

Take `c1ccc(-c2nn3c(c2-c2ccnc4cc(OCCN5CCOCC5)ccc24)CCC3)nc1`: the “PER2::LUC luminescence” value by setting is: (time after treatment 24 h) 0.646; (time after treatment 30 h) 0.598.

As to `C[S+](CC[C@H](N)C(=O)[O-])C[C@H]1O[C@@H](n2cnc3c(N)ncnc32)[C@H](O)[C@@H]1O` (some centres undefined), the “PER2::LUC luminescence” value (time after treatment 24 h) was 1.04 and the “PER2::LUC luminescence” value (time after treatment 30 h) is 0.878.

With `O=C(O)c1ccccc1Nc1cccc(C(F)(F)F)c1`, the “PER2::LUC luminescence” value worked out at 0.808 (time after treatment 24 h) and 1.11 (time after treatment 30 h).

`OCCc1ccccc1`: the “PER2::LUC luminescence” value was 0.801 and 0.495 (time after treatment 24 h); 1.25 and 0.971 (time after treatment 30 h).

With `O=C(c1ccc(F)cc1)C1CCN(CCn2c(=S)[nH]c3ccccc3c2=O)CC1`, the “PER2::LUC luminescence” value worked out at 0.979 (time after treatment 24 h) and 0.936 (time after treatment 30 h).

As to `O=C(O)Cn1nnc(-c2cc(N3CCC(Oc4cc(F)ccc4Br)CC3)no2)n1`, the “PER2::LUC luminescence” value reads like this: (time after treatment 24 h) 1.24; (time after treatment 30 h) 1.15.

With `Cc1cccc(C)c1OCC(=O)N[C@@H](Cc1ccccc1)[C@@H](O)C[C@H](Cc1ccccc1)NC(=O)[C@H](C(C)C)N1CCCNC1=O`, the “PER2::LUC luminescence” value turned out to be 0.908 (time after treatment 24 h) and 0.88 (time after treatment 30 h).

As for `Clc1ccc(C(c2ccccc2Cl)C(Cl)Cl)cc1` (centres undefined), the “PER2::LUC luminescence” value is 0.862 and 1.09 and 1.15 (time after treatment 24 h); 0.871 and 1.12 and 1.02 (time after treatment 30 h).

As for `O=C1O[C@H]([C@@H](O)CO)C(O)=C1O`, the “PER2::LUC luminescence” value by setting is: (time after treatment 24 h) 1.11 and 1.05; (time after treatment 30 h) 0.913 and 0.929.

With `CCCCN1CCCC[C@H]1C(=O)Nc1c(C)cccc1C`, the “PER2::LUC luminescence” value runs as follows: (time after treatment 24 h) 0.953; (time after treatment 30 h) 0.997.

Consider `C[C@@H]1CC[C@@]2(OC1)O[C@H]1C[C@H]3[C@@H]4CC=C5C[C@@H](O)CC[C@]5(C)[C@H]4CC[C@]3(C)[C@H]1[C@@H]2C`, for which the “PER2::LUC luminescence” value was 0.916 (time after treatment 24 h) and 0.872 (time after treatment 30 h).
